# Read counts are not given, so values of variants with three or more changes are uncertain.
# B1: OR4K15 (parent)
# chain: GUUAACGGUCAUAGGCCAUGGAAACUAGGAGCACCAUUUCGCUGCCAGUGAAGAAAUGAACAAAGAAAAUCUGGGCCAGGCAGGCAUCAAAAGAAAUAGUCUUGCGCUCAACCAGAAAGUCUGUAAUCAUUUUAAGGGUA
# Variants of: B1
# Experiment: self-cleavage, relative activity (ratio to wild type); higher = more cleavage; in vitro, sequencing; the parent is a self-cleaving ribozyme
row,Variant,self-cleavage
1,GUUAACGGUCAUAGGCCAUGGAAACUAGGAGCACCAUUUCGCUGCCAGUGAAGAAAUGAACAAAGAAAAUCUGGGCCAGGCAGGCAUCAAAAGAAAUAGUCUUGCGCUCAACCAGAAAGUCUGCAUUCAUUUUAAGGAUA,0.82
2,GUUAACGGUCAUAGGCCGUGGAAACUAGGAGCACCAUUUCGCUGCCAGUGAAGAAAUGAACAAAGAAAAGCUGGGCCAGGCAGGCAUCAAAAGAAAUAGUCUUGUGCUCAACCAGAAAGUCUGUAAUCAUUUUAAGGGUA,0.06
3,GUUAACGGUCAUAGGCCAUGGAAACCAGGAGCACCAUUUCGCUGCCAGUGAAGAAAUGAACAAAGAAAAUCUGGGCUAGGCAGGCAUCUAAAGAAGUAGUCUUGCGCUCAACCAGAAAGUCUGUAAUCAUUUUAAGGGUA,1.93
4,GUUAACGGUCACAGGCCAUGGAAACUAGGAGCACCAUUACGCUGCCAGUGAAGAAAUGAACAAAGAAAAUCUGGGCCAGGCAGGCAUCAAAAGGAAUAGUCUUGCGCUCAACCAGAAAGUCUGUAAUCACUAUAAGGGUA,1.95
5,GCUAACGGUCAUAGGCCAUGGAAACUAGGAGCACCAUUUCGCUGCCAGUGAAGAAGUGAACAAAGAAAAUCUGGACCGGGCAGGCAUCAAAAGAAAUAGUCUUACGCUCUACCAGAAAGUCUGUAAUCAUUUUAAGGGUA,0.02
6,GUUAACGGUCAUAGGCCAUGGAAACUGGGAGCACCAUUUCGCUGCCAGUGAAGAAAUGAACAAAGAGAAUCUGGGCCAGGCAGGCAUCAAAAGAAAUAGUCUUGCGCUCAACCAGAAGGUCUGUAAUCAUUUUAAGGGUA,0.67
7,GUUAACGGUCAUAGGCCGUGGAAACUAGGAGCACCAUUUCGCUGCCAGUGAAGAAAUGAACAAAGAAGAUCUGGGCCAGGCAGGCAUCAAAAGAAAUAGUCUUGCGCUCAACCAGAAAGUCUGUAAUCACUUUACGGGUA,1.43
8,GUUAGCGGUCAUAGGCCAUGGGAACUAGGAGCACCAUUUCGCUGCCAGUGAGGAAAUGAACAAAGAGAAUCUGGGCCAGGCAGGCAUCAAAAGAAAUAGUCUUGCGCUCAACCAGAAAGUCUGUAAUCAUUUUAAGGGUA,1.29
9,GUUAACGGUCAUAGGCCAUGGAAGCUAGGAGCACCAUUUCGCUGCCAGUGAAGUAAUGAACAAAGAAAAUCUGGGCCAGGCAGGCAUCCAAAGAAAUAGUCUUGCGCUCAACCAGAAAGUCUGUAAUCAUUUUAAGGGUA,2.26
10,GUUAACGGUCAUAGGCCAUGGAAACUAGGAGCACCAUUUCGCUGCCAGUGAAGAAAUGAACAAAGAAAAUCUGGGCCAGGCAGGCAUCAAAAGAAAUAGUCUUGCGCUCAACCAGAAAGUCUAUAGUCAUUUCGAGGGUA,0
11,GUUAACGGUCAUAGGCCAUGGAAACUAGGAGCGCCACUUCGCCGCCAGUGAAGAAAUGAACAAAGAAAAUCUGGGCCAGGCAGGCAUCAAAAGAAAUAGUCUUGCGCUCAACCAGAAAGUCUGUAAUCCUUUUAAGGGUA,0.34
12,GUUAACGGUCAUAGGCCAUGGAAACUAGGAGCACCUUUCCGCUGCCGGUGAAGAAAUGAACAAAGAAAAUCUGGGCCAGGCAGGCAUCAAAAGAAAUAGUCUUGCGCUCAACCAGAAAGUCUGUAAUCAUUUUAAGGGUA,1.18
13,GUUAACGGUCAUAGGCCAUGGAAACUGGGAGCACCACUUCGCUGCCAGUGAAGAAAUGAACAAAGAAAAUCUGGGCCAGGCAGGCAUCAAAAGAGAUAGUCUUGCGCUCAACCAGAAAGUCUGUAAUCAUUUUAAGGGUA,1.35
14,GUUACCGGUCAUAGGCCAUGGAAACUAGGAGCACCAUUUCGCUGCCAGUGAAGAAAUGAACAAAGAAAAUCUGGGCCAGGCAGGCAUCAAAAGAAAUGGUCUUGCGCUCAACCAGAAAGUCUGUAAUCAUUAUAAGGGUA,0.38
15,GUUAACGGUCAUAGGCCAUGGAAACUAGGAGCACCAUUUCGCUGCCUGUGAAGAAAUGAACAAGGAAAAUCAGGGCCAGGCAGGCAUCAAAAGAAAUAGUCUUGCGCUCAACCGGGGAGUCUGUAAUCAUUUUAAGGGUA,0.02
16,GUUAACGGUCAUAGGCCAUGGAAACUAGGAGCACCAUUUCGCUGCCAGAGAAGAAAUGAACAAAGAAAAUCUGGGCCGGGCAGGCAUCAAAGGAAAUAGUCUUGCGCUCAACCAGAAAGUCUGUAAUCAUUUUAAGGGUA,0.22
17,GUUAACGGUCGUAGGCCACGGAAACUAGGAGCACCAUCUCGCUGCCAGUGAGGAAAUGAACAGAGAAAAUCUGGGCCAGGCAGGCAUCAAAAGAAAUAGUCUUGCGCUCAACCAGAAAGUCUGUAAUCAUUUUAAGGGUA,1.07
18,GUUAACGGUCAUAGGCCAUGGAAACUAGGAGCACCAUUUCGCUGCCAGUGAAGAGAUGAACAAAGAAGAUCUGGGCCAGGCAGGCAUCAAAAGAAGUAGUCUUGCGCUCAACCAGAAGGUCUGUAAUCAUUUUAAGGGUA,0.39
19,GUUAACGGUCAUAGGCCAUGGAAACUAGGAGCACCAUAUCGCUGCCAGCGAAGAAAUGAACAAAGAAAAUCUGGGCCAGGCAGGCAUCAAAAGAAAUAGUCUUGCGCUCAACUAGAAAGUCUGUAAUCACUUUAACGGUA,0.01
20,GUUAACGGUCAUAGGCCAUGGAAACUAGGAGCACCAUUUCGCUGCCAGUGAAGAAAUGAACAAGGAUAAUCUGGGCCAGGCAGGCAUCAAAAGAAAUAGUCUUGCGCUCAACCAGAAAGUCUGUAAUCAUUUUAGGGGUA,2.79
21,GUUAACGGUCAUAGGCCAUGGAAACUAGGAGCACCAUUUCGCUGCCAGUGAAGGAGUGAACAAAGAACAUCUGGGCCAGGCAGGCAUCAAAAGAAAUAGCCUUGCGCUCAACCAGAAAGUCUGUAAUCAUUUUAAGGGUA,2.39

row,Variant,self-cleavage
1,GUUAUCGGUCAUAGGCCAUGGAAACUAGGUGCACCAUUUCGCUGCCAGUGAAGAAAUGAACAAAGAAAAUCUGGGCUAGGCAGGCAUCAAAAGAAAUAGUCUUGCGCUCAACCAGAAAGUCUGUAAUCAUUUUAAGGGUA,1.72
2,GUUAGCGGUCAUAGGCCAUGGAAACUAGGAGCACCAUUUCGCUGCCAGUGAAGAAAUGAACAAAGAAAAUCUGGGCCAGGCAGGCAUCAAAAGAAAUAGUCUUGCGCUCAACCAGAAGGUCUGCAAUCAUUUUAAGGGUA,0.69
3,GUUAACGGUCAUAGGCCAUGGAAACUAGGAGCACCAUUUCGCUGCCAGUGAAGAAAUGAACAAAGAAGAUCUGGGCCAGGCAGGCAUCGAAAGAAAUAGUCUUGCGCUCAACCAGAAAGCCUGUAAUCAUUUUAAGGGUA,0.82
4,GUUAACGGUCAUAGGCCAUGGAAACUAGGAGCACCAUUUCGCUGCCAGUGAAGAAAUGAACAAAGGAAAUCCGGGCCAGGCAGGCAUCAAAAGAAAUAGUCUUGCGCUCAACCAGAAAGUCAGUAACCAUUUUAAGGGUA,0.13
5,GUUAACGGUCAUAGGCCAUGGAAACUAGGAGCACCAUUUCGCUGCCAGUGAAGAAAUGAAUAAAGAAAAUCUGGGCCAGGCAGGCAUCAAAGGAAAUAGUCUAGCGCUCAACCAGAAAGUCUGUAAUCAUUUUAAGGGUA,0.84
6,GUUAUCGGUCAUAGGCCAUUGAAACUAGGGGCACCACUUCGCUGCCAGUGAAGAAAUGAACAAAGAAAAUCUGGGCCAGGCAGGCGUCAAAAGAAAUAGUCUUGCGCUCAACCAGAAAGUCUGUAAACAUUUUAAGGGUA,1.75
7,GUUAACGGUCAUAGGCCAUGGAAACUAGGAGCACCAUUCCGCUGCCAGUGAAGAAAUGAACAAAGAAAAUCUGGGCCAGGCAGGCAUUAAAAGAAAUAGUCUUGCGCUCAACCAGAAAGUCUGUAAUCAUUAUAAGGGUA,1.59
8,GUUAACGGUCAUAGGCCAUGGAAACUAGGAGCACCAUUUCGCUGCCAGUGAAGAAGUGAACAAAGAAAAUCUGGGCCAGGCAGGCAUCAAAAGAAAUAGUCUUGCGCUCAACCAGGAAGUCUGUAAUCAUUUUAUGGGUA,1.23
9,GUUAACGGCCAUAGGCCAUGGAAACUAGGAGCACCAUUUCGCUGCCAGUGAAGAAAUGAACAAAGAAAAUCUGGGCCAGGCAGGCAUCAAAAGAAAAAGUCUUGCGCUCAACCAGAAAGACUGUAAUCAUUUUAAGGGUA,2.14
10,GUUAACGGUCAUAGGCCAUGGAAACUAGGAGCACCAUUUCGCUGCCAGUGAAGAAAUGAACGGAGAAAAUCUGGGCCUGGCAGGCAUCAAAAGAAAUAGUCUUGCGCUCAACCAGAAAGUCUGUAAUCAUUUUAAGGGUA,0.35
11,GCUAACGGUCAUAGGCCAUGGAAACCAGGAGCACCAUUUCGCUGCCAGUGAAGAAAUGAACAAAGAAAAUCUGGGCCAGGCAGGCAUCAAAAGAAAUAGUCUUGCGCUCAACCAGGAAGUCUGUAAUCAUUUUAAGGGUA,0.48
12,GUUAACGGUCAUAGGCCAUGGAGACUAGGAGCACCAUUUCGCUGCCAGUGAAGAAAUGAACAAAGAAAAUCUGGGCCGGGCAGGCAUCAAAAGAAAUAGUCUUGCGCUCAACCAGAAAGUCCGUAAUCAUUUUAAGGGUA,0.07
13,GUUAACGGUCAUAGGCCAUGGAAACUAGGAGCACCAUUUCGCUGCCAGUGAAGAAAUGCACAAAGAAAACCUGGGCCAGGCAGGCAUCAAAAGAAAUAGUCUUGCGCUCAACCAGAAAGUCUGUAAUCACUUUAAGGGUA,0.44
14,GUUAACGGUCAUAGGCCAUGGAAACUAGGAGCACCAUUUCGCUGCCAGUGAAGAAAUGAACAAAGAGAAUCUGGGCCAGGCAGGCAUCAAAAGAAAUAGUCUUGCGCUCAACCAGAAAGUCUGUAAUCACUUUAAGGGUU,1.56
15,GUUAACGGUCAUAGGCCAUGGAAACUAGGAGCACCAUCUCGCUGCCAGUGAAGAAAUGAACAAAGAAAAUCUGGGCCAGGCAGGCAUCAAAAGAAAUAGACUUGCGCUCAACCAGAAAGUCUGUAAUCAUUUUAAGGGCA,0.79
16,GUUAGCGGUCACAGGCCAUGGAAACUAGGAGCACCAUUUCGCUGCCAGUGAAGAAAUGAACAAAGUAAAUCUGGGCCCGGCAGGCACCAAAGGAAAUAGUCUUGCGCUCAACCAGAAAGUCUGUAAUCAUUUUAAGGGUA,0.25
17,GUCAACGGUCAUAGGCCAUGGAAACUAGGAGCACCAUUUCGCUGCCAGUGUAGAAAUGAACAAAGAAAACCUGGGCCAGGUAGGCAUCAAAAGAAAUAGUCUUGCGCUCAACCAGAAAGUCUGUAAUCAUUUUAAGGGUA,0.33
18,GUUAACGGUCAUAGGCCAUGGAAACUAGGAGCACCAUUUCGCUGCCAGUGAAGAAAUGAACUAAGAAAACCUGGGCCAGGCAGGCAUCAAAAGAAAUAGUCUUGCGCUCAACCAGCAAGUCUGUAAUCAUUUUAAGGGUA,0.03
19,GUUAACGGCCAUAGGCCAUGGAGACUAGGAGCACCAUUUCGCUGCCAGUGAAGAAAUGAACAAAGGAAAUCUGGGCCAGGCAGGCAUCAAAAGAGAUAGUCUUGCGCUCAACCAGAAAGUCUGUAAUCAUUUUAAGGGUA,1.79
20,GUUAACGGUCAUAGGCCGUGGAAACUAGGAGCACCAUUUCGCUGCCGGUGAAGAAAUGAACAAAGAAGAUCUGGGCCAGGCAGGCAUCAAAAGAAAUAGCCUUGCGCUCAACCAGAAAGUCUGUAAUCAUUUUAAGGGUA,1.02

# From the RNAGym collection of RNA variant scans (doi:10.7554/elife.90254)
